Data published in the supplement of paper PMC11417369.
± gives the standard deviation of the averaged measurements. The list shows a part of the results.

system: PfAP2-I AP2 domain 3 (GST-tagged); assay: gcPBM binding intensity (ln(normalized median fluorescence intensity)); higher = stronger DNA binding
In short: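 Plasmodium falciparum DNA-binding domains carrying a GST tag were expressed in E. coli and applied for 1 h, at about 25 μg on average, to an Agilent 4 × 180k array. The array held primer-extended double-stranded 36-bp intergenic genomic probes together with negative controls, and binding took place in 1× PBS with 1% milk, 0.2 mg/ml BSA, 0.5% salmon testes DNA and 0.03% Triton X-100. An Alexa488 anti-GST antibody detected bound protein, and the array was scanned at 488 nm. Binding intensity is taken as the highest Masliner-normalised natural-log median intensity across replicate spots of either probe orientation.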

Row | Sequence | gcPBM binding intensity (ln)
1 | CCTCTTTATTTTAATTGTACATTTTTGTAGGTTTTT [XGTACX_site7130] | 8.19 ± 0.66
2 | TCCTTTTTTTTGTAATGTACTTAGTTTGGTTATATG [XGTACX_site8208] | 7.84 ± 0.57
3 | ATGTATATATATATATGTACTAATTAGTAATTTACG [XGTACX_site6276] | 7.87 ± 0.32
4 | AAAACAAACCCATTTACACACATAAATAAATCAATT [CACACA_site6126] | 7.67 ± 0.48
5 | AAAAAGAAGATATATACACACCAAAAAAAAAAAAAA [CACACA_site7471] | 8 ± 0.55
6 | AATATATATATACATACATGCATACATATATATATA [TGCATGCA_site784] | 9.4 ± 0.3
7 | GGATAGATCATTTACACACACAAAAAAAAAAAAAAA [CACACA_site2139] | 8.04 ± 0.56
8 | ATAATATATTATTATAGTACTTTATTTTATTTTATG [XGTACX_site2387] | 7.67 ± 0.49
9 | TAAGGAAAAAGAAAAAGTACATTATATAATAAATAG [XGTACX_site3282] | 7.89 ± 0.66
10 | AAAAAAAATAAAATGAATAAATAAGAATTACATATT [CACACA_negctrl_site863] | 7.39 ± 0.65
11 | CAAATATATGTTTTCACACACAAAAGAAATGAAACC [CACACA_site2162] | 7.86 ± 0.65
12 | TTGTATAAATATGTATGTATATAATATATGTAAAGA [TGCATGCA_negctrl_site93] | 8.01 ± 0.58
13 | CACATACACATACACATACACACGCATAGAAACATA [CACACA_site2136] | 8.65 ± 0.78
14 | AAATCGTGTACATTGACACACATAATTTTTTTTATA [CACACA_site2463] | 8.09 ± 0.38
15 | AATATATTTATATAGTGTACATTTTTTATATATGTA [XGTACX_site8142] | 7.67 ± 0.18
16 | TATTAATTTTTATTATGTACATAAATAATTTATATT [XGTACX_site5456] | 7.7 ± 0.28
17 | ATATGATGTAAAAGCACACATATATATATATATATA [CACACA_site4018] | 9.51 ± 0.37
18 | TACTATAAAATGGAATGTACACATAAATATATCTAA [XGTACX_site6137] | 7.83 ± 0.46
19 | GTTTATAACTATGTGTGTACACATTAATCGTTTTTC [XGTACX_site4364] | 8.19 ± 0.3

Row | Sequence | gcPBM binding intensity (ln)
20 | AGGATAATATACAAAAGTACATAAAACTAAAAAAAC [XGTACX_site605] | 8.21 ± 0.59
21 | AAAGAAAGAAAGAATACACACACACCGATATATATA [CACACA_site9246] | 8.33 ± 0.68
22 | AACATATATTTTGAAACACACACATATATAATATAC [CACACA_site8301] | 7.86 ± 0.59
23 | AATGTGTATATATATACACACACATATATATATTTT [CACACA_site8596] | 7.89 ± 0.49
24 | TCCTTTTTACTACTAGTGCATTATTTACAAGGTCCG [GTGCAC_site9441] | 11.4 ± 0.68
25 | ATATATATAAAATATTATATTAAAAAAAATAAAATA [GTGCAC_negctrl_site87] | 7.51 ± 0.57
26 | TAGTTTTTTATATATTGTACTTAGAATATATTATAT [XGTACX_site3662] | 7.66 ± 0.3
27 | ATATAAATATATATATGTACATAATATATTATGTTT [XGTACX_site2806] | 7.64 ± 0.32
28 | AATTTAACCACTAAAAGTACACACATATATACATAT [XGTACX_site8352] | 8.28 ± 0.31
29 | GGACACCTTCAAAACACACATACAAATAAATAGAAA [CACACA_site3305] | 7.67 ± 0.54
30 | AATAGTTCTTGAACGTGTACATAAAATATAATTTAC [XGTACX_site11] | 7.79 ± 0.5
31 | TTCTATTTTTTAAAAGTGCATATTATAAATATATAT | 9.63 ± 0.11
32 | GAATAATCCAAACACACACACACACCCGAATAAATA [CACACA_site482] | 8.21 ± 0.028
33 | GAAATCTAAATAGAAACACACATATATAAATAAATA [CACACA_site7762] | 7.41 ± 0.59
34 | TAGTATTTATATGTTATATATATAAAATAATACAGT [XGTACX_negctrl_site571] | 7.75 ± 0.59
35 | TATATAGAATTATATGCATGTTCAAAAAAATACAAC [TGCATGCA_site431] | 8.01 ± 0.47
36 | ATATCTAATAAAAATACACACACATATGATTTGTGA [CACACA_site8558] | 7.53 ± 0.38
37 | TATTTTTATTTATAACGTACGAAAAATGTATATAAT [XGTACX_site703] | 7.96 ± 0.35
38 | GGTGTATGTTAAAGGAGTACATATATATATATATAT [XGTACX_site7727] | 9.36 ± 0.45

Row | Sequence | gcPBM binding intensity (ln)
39 | CATACACATTTCATATGTACATAGATTGAAGGGAAG [XGTACX_site116] | 7.74 ± 0.5
40 | TTTTATATATAATTCACACAAAAAAGATACATAAGA [CACACA_site5332] | 8.01 ± 0.51
41 | TATATAAAAATATGTTGTACGCATTTATAAATATAT [XGTACX_site3758] | 7.84 ± 0.25
42 | ATTTTTTTTTTTTTTTTTTTTTTTTTTGAATTCACA [CACACA_negctrl_site982] | 7.66 ± 0.54
43 | TAAGCAAAAATAATTACACACAAATTTATAAAAAAT [CACACA_site3377] | 7.58 ± 0.64
44 | ATAAAAATATAATTGAGTACATATGAATAGTCCTAT [XGTACX_site6281] | 7.58 ± 0.46
45 | ATTTTGTTTTTTTTTGCACACCATAAGGAGTGTAGG [CACACA_site1414] | 9.715 ± 0.035
46 | ACAACACATATTCATCGTACATGTATTAGGAAGACA [XGTACX_site1859] | 7.83 ± 0.58
47 | TCATATATTTTATACATACACACATATATATATTTT [CACACA_site3941] | 7.87 ± 0.53
48 | ACGTTATACACAGTACGTACATAACTATCTAAATGT [XGTACX_site5068] | 8.02 ± 0.47
49 | TGGAGGTCAGTTCACAGTACCCAGGAAATCTGCGGA [XGTACX_site2556] | 8.3 ± 0.93
50 | TATAACATAGGACACACACACATACATACACAAAAA [CACACA_site5062] | 8.125 ± 0.078
51 | TTCACTTTTTTTTTTTTTTTTTTTTTTTTTTTTATT [GTGCAC_negctrl_site350] | 7.64 ± 0.52
52 | ATGCATAATATACTCTTACACACCATTTCTATATAC [CACACA_site1461] | 8.29 ± 0.53
53 | AAAAAAAAAAAACACACACACACACCCACCCATACA [CACACA_site2859] | 8.29 ± 0.69
54 | TTTACAACATCAAAATGTACGCATTATTATTATTAA [XGTACX_site3017] | 7.68 ± 0.25
55 | TGTGTATAAATATACACACACATATAAATATTTTAA [CACACA_site7005] | 7.62 ± 0.31
56 | TATTTAAAAAATAATACACACATAATATAACAAAAT [CACACA_site3174] | 8.16 ± 0.46
57 | ACATATAATATAAATTGTACATATAAATATATTATT [XGTACX_site4268] | 7.66 ± 0.44
